According to PubChem BioAssay (Tox21):
Several values for one entry are separate records, joined by “and”; a condition that tells them apart may be missing. Identical values can stand only once. This list was built around the results that the source calls inconclusive (neither active nor inactive); the mix of calls is not that of the screen. For some of these results: Potencies beside an inconclusive call are fits to weak or partial responses and may not hold up. Activity calls are given as the source filed them. Unless noted, the call rests on the fitted dose curve; in most records, active means well fitted curve in the direction sought with a large enough effect in the repeat runs; inconclusive means weak or mixed curves; inactive means no such curve, though single readings can be large; an effect the other way counts as inactive or inconclusive.

Legend:
[1] = target: Progesterone receptor (Homo sapiens) (UniProt P06401); test: qHTS assay to identify small molecule antagonists of the progesterone receptor (PR) signaling pathway (AID 1346795; active means well fitted inhibition curve with a large enough effect in the signal ratio in the repeat runs, not every such curve was filed as active; inconclusive means weak or mixed curves; the % refers to the signal ratio; on activity change, negative = inhibition: on the % scale 0 is the no-effect control and ±100 the full control effect); conditions: PR-UAS-bla HEK293T, beta-lactamase FRET ratio, 16 h
Outline: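 After 6 hr plating at 37C in 2% stripped-serum medium, PR-UAS-bla HEK293T cells got compounds, then 1 nM R5020. Sixteen hours later, LiveBLAzer substrate was applied for 2 hr at room temperature and fluorescence was recorded.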

[2] = qHTS assay to identify small molecule antagonists of the progesterone receptor (PR) signaling pathway - cell viability counter screen (AID 1346798); further: nearly all actives have a fitted effect of over 50% in size
Outline: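 Viability was determined by ATP-based luminescence (CellTiter-Glo) in PR-UAS-bla HEK293T cells cultured in 2% charcoal-stripped serum and incubated 16 hr with compounds under R5020 stimulation.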

[3] = qHTS assay to identify small molecule agonists of the TGF-beta/Smad signaling pathway (AID 1346859; active means well fitted activation curve with a large enough effect in the signal ratio in the repeat runs, not every such curve was filed as active; inconclusive means weak or mixed curves; the % refers to the signal ratio); conditions: SBE-bla HEK293T, TGF-beta/Smad beta-lactamase reporter, 5 h; activation: at 76.8 µM (top of the series)
Outline: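 Dual-wavelength fluorescence (460/530 nm emission) quantified beta-lactamase expression under the Smad binding element in HEK 293T cells following 5 hr compound treatment at 37 C.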

[4] = target: Progesterone receptor (Homo sapiens) (UniProt P06401); test: qHTS assay to identify small molecule agonists of the progesterone receptor (PR) signaling pathway (AID 1346784; calls by dose curve; further: nearly all actives have a fitted effect of over 30% in size; on activation: on the % scale 0 is the no-effect control and ±100 the full control effect); conditions: PR-UAS-bla HEK293T, beta-lactamase FRET ratio, 16 h; activation: at 92.4 µM (top of the series) unless noted
Outline: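 The screen uses PR-UAS-bla HEK 293T cells in charcoal-stripped serum (2%). Compounds are applied for 16 hr at 37C after a 6 hr pre-incubation, and reporter activity is detected with a FRET beta-lactamase substrate after 2 hr at room temperature.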

[5] = qHTS assay to identify small molecule agonists of the progesterone receptor (PR) signaling pathway - cell viability counter screen (AID 1346799; calls by dose curve; further: nearly all actives have a fitted effect of over 45% in size)
Outline: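 Viability was scored by ATP luminescence (CellTiter-Glo, 30 min, room temperature) in the same wells used for the reporter readout, after 16 hr compound exposure of PR-UAS-bla HEK293T cells.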

[6] = qHTS assay to identify small molecule antagonists of the TGF-beta/Smad signaling pathway (AID 1346924; active means well fitted inhibition curve with a large enough effect in the signal ratio in the repeat runs, not every such curve was filed as active; inconclusive means weak or mixed curves; the % refers to the signal ratio); conditions: SBE-bla HEK293T, TGF-beta/Smad reporter, beta-lactamase ratio
Outline: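 Read-out was FRET-substrate fluorescence (405 nm excitation; 460 and 530 nm emission) after 2 h at room temperature. Before that, cells carrying a Smad-binding-element beta-lactamase reporter in HEK 293T had been stimulated 5 h at 37 C with TGF-beta1 (0.25 ng/mL addition solution) in the presence of test compound.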

[7] = Human pregnane X receptor (PXR) small molecule agonists, qHTS cell viability counter screen (AID 1346977); further: nearly all actives have a fitted effect of over 50% in size
Outline: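 HepG2 cells stably carrying the PXR-Luc reporter are cultured with 5% charcoal-stripped FBS and treated with compounds for 24hr. CellTiter-Fluor is added at 23hr and fluorescence is read after 1hr.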

[8] = qHTS assay to identify small molecule agonists of the TGF-beta/Smad signaling pathway - cell viability counter screen (AID 1346829); further: nearly all actives have a fitted effect of over 45% in size
Outline: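 After overnight seating at 37 C and 5% CO2, reporter cells got compounds for 5 hr and FRET substrate for 2 hr; cell viability then came from CellTiter-Glo luminescence.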

[9] = qHTS assay to identify small molecule antagonists of the TGF-beta/Smad signaling pathway - cell viability counter screen (AID 1346824); further: nearly all actives have a fitted effect of over 50% in size
Outline: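 SBE-bla HEK 293T cells, incubated overnight, then compound plus 0.25 ng/mL TGF-beta1 (stock added) for 5 hr at 37 C. Viability was read in the same wells by CellTiter-Glo luminescence after 30 min at room temperature.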

[10] = target: Thyrotropin-releasing hormone receptor (Homo sapiens) (UniProt P34981); test: qHTS assay to identify small molecule antagonists of the thyrotropin-releasing hormone receptor (TRHR) signaling pathway (AID 1346877; active means well fitted inhibition curve with a large enough effect in the repeat runs, not every such curve was filed as active; inconclusive means weak or mixed curves)
Outline: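 HEK293/TRHR cells, 18 h, 37 °C; Ca2+ dye 2 h; cpd 5 min RT; TRH 1 nM final; fluorescence read 3 min, 1 s intervals; 15 concs, triplicate.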

[11] = activity change, negative = inhibition: at 92.4 µM (top of the series) unless noted
[12] = activity, negative = inhibition: at 76.8 µM (top of the series) unless noted
Potency means the concentration at half of the fitted maximal effect; tags describe the fitted curve by direction and shape or compound fluorescence and quenching.

Chain of UniProt P34981 (P34981 whole entry, looked up): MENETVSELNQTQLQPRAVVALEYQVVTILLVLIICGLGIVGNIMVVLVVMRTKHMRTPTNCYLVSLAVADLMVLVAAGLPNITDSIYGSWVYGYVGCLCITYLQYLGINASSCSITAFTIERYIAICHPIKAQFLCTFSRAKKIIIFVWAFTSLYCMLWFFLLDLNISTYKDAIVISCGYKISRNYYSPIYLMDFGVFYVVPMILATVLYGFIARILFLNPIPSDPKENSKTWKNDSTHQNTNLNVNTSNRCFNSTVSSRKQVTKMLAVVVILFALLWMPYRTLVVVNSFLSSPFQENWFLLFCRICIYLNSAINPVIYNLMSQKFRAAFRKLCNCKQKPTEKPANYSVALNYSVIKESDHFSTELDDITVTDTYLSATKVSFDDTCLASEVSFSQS
Chain of UniProt P06401 (P06401 whole entry, looked up): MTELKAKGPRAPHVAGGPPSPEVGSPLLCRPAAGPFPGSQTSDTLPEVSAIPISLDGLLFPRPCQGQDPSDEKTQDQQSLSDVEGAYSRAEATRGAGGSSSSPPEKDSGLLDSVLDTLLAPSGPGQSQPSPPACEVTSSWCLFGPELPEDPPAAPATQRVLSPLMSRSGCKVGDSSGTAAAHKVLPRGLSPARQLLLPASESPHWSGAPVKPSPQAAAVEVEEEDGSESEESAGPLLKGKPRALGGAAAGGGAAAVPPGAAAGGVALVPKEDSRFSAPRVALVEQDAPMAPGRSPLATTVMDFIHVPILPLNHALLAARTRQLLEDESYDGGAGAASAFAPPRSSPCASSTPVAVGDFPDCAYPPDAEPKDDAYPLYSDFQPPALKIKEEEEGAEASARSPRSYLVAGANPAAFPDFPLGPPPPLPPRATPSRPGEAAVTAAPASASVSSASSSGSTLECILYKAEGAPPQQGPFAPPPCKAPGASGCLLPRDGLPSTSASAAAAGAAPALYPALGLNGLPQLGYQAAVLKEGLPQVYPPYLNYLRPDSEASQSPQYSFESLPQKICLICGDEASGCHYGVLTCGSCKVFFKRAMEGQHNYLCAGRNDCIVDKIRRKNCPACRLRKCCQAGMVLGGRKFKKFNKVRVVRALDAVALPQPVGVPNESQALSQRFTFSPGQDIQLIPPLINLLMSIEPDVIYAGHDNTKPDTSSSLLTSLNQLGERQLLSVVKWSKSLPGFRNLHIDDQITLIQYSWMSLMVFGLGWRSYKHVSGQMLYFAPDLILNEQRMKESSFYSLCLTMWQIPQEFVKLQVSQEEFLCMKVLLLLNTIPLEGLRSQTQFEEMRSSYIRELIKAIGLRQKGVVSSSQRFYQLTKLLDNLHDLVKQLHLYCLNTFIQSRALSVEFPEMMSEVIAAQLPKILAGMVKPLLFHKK

SMILES: CCCCC(CC)COC(=O)c1ccc(N(C)C)cc1 (stereo not given)
- activity change, negative = inhibition ([1]; at 42.5 µM (top of the series)): inconclusive: -21.4%
- activity change, negative = inhibition ([1]; at 92.4 µM (top of the series)): inconclusive: -22.3%
- Potency [2]: inactive
- Potency [3]: inconclusive: 10.7 µM [activator, single point]

SMILES: CC[C@H](c1ccc(O)cc1)[C@@H](CC)c1ccc(O)cc1
- activation [4]: inconclusive: -22.5%
- Potency [5]: inconclusive: 68.6 µM [cytotoxic, single point] and inconclusive: 11.9 µM
- activity, negative = inhibition ([6]; at 35.3 µM (top of the series)): inconclusive: -6.14%
- activity, negative = inhibition ([6]; at 76.8 µM (top of the series)): inconclusive: -4.09%

SMILES: Cc1oncc1C(=O)Nc1ccc(C(F)(F)F)cc1
- Potency [1, 11]: active: 61.1 µM
- activity change, negative = inhibition [1, 11]: inconclusive: -47.7% [at 42.5 µM]
- Potency [2]: inconclusive: 77 µM [cytotoxic, single point]
- Potency [5]: inconclusive: 68.6 µM [cytotoxic, single point]
- Potency [7]: inconclusive: 68.6 µM [cytotoxic, single point] and inactive

SMILES: OC[C@@H](O)[C@H](O)[C@H](O)[C@@H](O)CO
- Potency [1, 11]: inactive

SMILES: CC(=O)c1ccc(S(=O)(=O)NC(=O)NC2CCCCC2)cc1
- activity change, negative = inhibition [1, 11]: inconclusive: 9.2%
- activity change, negative = inhibition ([1]; at 42.5 µM (top of the series)): inactive: 1.24%
- activity change, negative = inhibition ([1]; at 92.4 µM (top of the series)): inactive: -0.316%
- Potency [2]: inactive
- Potency [8]: inactive

SMILES: CCOC(=O)[C@H](CCc1ccccc1)N[C@@H](C)C(=O)N1Cc2ccccc2C[C@H]1C(=O)O
- Potency [1, 11]: inconclusive: 34.6 µM [falling, partial curve]
- activity change, negative = inhibition [1, 11]: inconclusive: -43.4% [at 42.5 µM]
- Potency [5]: inconclusive: 21.1 µM [cytotoxic, partial curve, poor fit]
- Potency [3]: inconclusive: 44 µM [rising, partial curve, poor fit]
- activity, negative = inhibition [6, 12]: inconclusive: 0.877%
- Potency [7]: inconclusive: 29.8 µM [cytotoxic, single point]

SMILES: Oc1c(Cl)cc(Cl)c(Cl)c1Cc1c(O)c(Cl)cc(Cl)c1Cl
- activation [4]: inconclusive: -22%
- Potency [5]: inconclusive: 54.3 µM [cytotoxic, partial curve, poor fit] and inconclusive: 54.5 µM [cytotoxic, partial curve, poor fit] and inconclusive: 2.11 µM
- Potency [9]: inconclusive: 6.9 µM [cytotoxic, full curve] and inconclusive: 4.25 µM [cytotoxic, full curve]
- Potency [8]: inconclusive: 4.89 µM [cytotoxic, full curve] and inconclusive: 3.47 µM [cytotoxic, full curve] and inconclusive: 3.38 µM [cytotoxic, partial curve]
- Potency [3]: inconclusive: 12.3 µM [rising, full curve] and inconclusive: 8.71 µM [rising, full curve]
- Potency [10]: active: 12 µM and active: 26.9 µM and inconclusive: 14.7 µM [inhibitor, partial curve]

SMILES: O=C(O)c1ccc([N+](=O)[O-])cc1
- activity change, negative = inhibition [1, 11]: inconclusive: 15.4%
- activity change, negative = inhibition ([1]; at 92.4 µM (top of the series)): inactive: 1.48%
- Potency [5]: inconclusive: 68.4 µM [cytotoxic, single point]

SMILES: c1ccc2c(c1)CCc1ccccc1N2
- Potency [4]: inconclusive: 4.88 µM [activator, full curve]
- Potency [9]: inconclusive: 55.2 µM [cytotoxic, partial curve, poor fit]
- activity, negative = inhibition [6, 12]: inconclusive: -20.8%

SMILES: CCCCCCCC/C=C\CCCCCCCC(=O)N(CCO)CCO
- Potency [1, 11]: active: 43.1 µM
- Potency [2]: inconclusive: 34.2 µM [rising, partial curve, poor fit]
- Potency [5]: inconclusive: 30.5 µM [rising, full curve]
- activity, negative = inhibition [6, 12]: inconclusive: -4.44%
- Potency [7]: inconclusive: 60.9 µM [cytotoxic, single point]

SMILES: Cc1c(N(C)C)c(=O)n(-c2ccccc2)n1C
- activity change, negative = inhibition [1, 11]: inconclusive: -41.2%
- Potency [2]: inconclusive: 69.8 µM [cytotoxic, single point]
- Potency [5]: inconclusive: 69.8 µM [cytotoxic, single point]

SMILES: S=P(N1CC1)(N1CC1)N1CC1
- Potency [1, 11]: inconclusive: 0.0041 µM [rising, full curve, poor fit]
- Potency [2]: inconclusive: 25.7 µM [cytotoxic, full curve, poor fit]
- Potency [5]: inconclusive: 51.2 µM [cytotoxic, partial curve, poor fit]
- Potency [9]: inconclusive: 57.9 µM [cytotoxic, partial curve, poor fit]

SMILES: COc1cc([C@@H]2c3cc4c(cc3[C@H](O)[C@H]3COC(=O)[C@H]23)OCO4)cc(OC)c1OC
- Potency [1, 11]: inconclusive: 34.3 nM [falling, full curve] and inconclusive: 18.8 nM [falling, full curve]
- Potency [2]: inconclusive: 43.2 nM [rising, full curve] and inconclusive: 53.1 nM [rising, full curve]
- Potency [5]: inconclusive: 54.4 nM [rising, full curve] and inconclusive: 26.6 nM [rising, full curve]
- Potency [9]: inconclusive: 0.0952 µM [cytotoxic, single point]
- Potency [6, 12]: inconclusive: 0.0535 µM [rising, full curve, poor fit]
- activity, negative = inhibition [6, 12]: inconclusive: -14.3%
